Self-cleavage data for 56 variants are collected here from the RNAGym collection of RNA variant scans (doi:10.7554/elife.90254).

The labels stand for the following.
B1: LINE1-mini (parent)
chain: GGCAGAGCUCAACACAGCGUGGCAAAGUGGCUGUGGCUAGACUGCC

Read counts are not given, so values of variants with three or more changes are uncertain.

Variants of B1 are the subject of the series. Briefly: self-cleavage, relative activity (ratio to wild type); higher = more cleavage; in vitro, sequencing; the parent is a self-cleaving ribozyme.
With CGCAGAGCUCAACACAGCGUGGCAAAGUAGCUGUGGCUAGACUGAC [G1C G29A C45A], the self-cleavage was determined as 0.31.

For CGCAGAGCUCAACACAGCGUGGCAAAGUGGCUGUGCCAAGAAUGCC [G1C G36C U38A C42A], the self-cleavage is 0.

For CGCAGAGCUCAACACAUCGGGGCAACGUGGCGGUGGCUAGAAUGCC [G1C G17U U20G A26C U32G C42A], the self-cleavage came to 0.08.

CGCAAAGCACAGCACAGGGUGGCAAAGUGGCUGUGCCAAGACUGCA [G1C G5A U9A A12G C18G G36C U38A C46A]: the self-cleavage worked out at 0.

Consider CCCAGAGCUCAACACAGAGUGGCAAAGUGGCUGUGGCUAUACUGCC [G1C G2C C18A G40U], for which the self-cleavage was determined as 0.06.

Turning to CGCAGAGCUCAACAGAGCGCGGCAAAGUGGCUGUGGCUAGACUGCC [G1C C15G U20C], the self-cleavage is 0.02.

Consider CGCAGAGCUCAACACAGCGUGGCAAAGUGGGUGUGGCCUGACUGCC [G1C C31G U38C A39U], for which the self-cleavage amounted to 0.

Regarding CGCAGAGCUCAACACACCGUGGCAAAGUGGAUGUGGCUAGACUGCC [G1C G17C C31A], the self-cleavage is 0.18.

Turning to CACAGGGCUGAACACAGCGUGGCAAAGUGGCUGUGGCUAGACUGCC [G1C G2A A6G C10G], the self-cleavage was determined as 0.

As to CGCAGAGCUCAACACAGCGUGGGAUAGUGGCUGCGGCUAGACUGCA [G1C C23G A25U U34C C46A], the self-cleavage was 0.02.

CGCAUAGCUCAACACAGCGUGGCAAAGUUGCUGUGGCUAGACUGCA [G1C G5U G29U C46A]: the self-cleavage was determined as 0.05.

As for CGCACAGAUCCACACUGCAUGCCAAAGUCGCUGUGGCUAGACUGCC [G1C G5C C8A A11C A16U G19A G22C G29C], the self-cleavage was determined as 0.01.

Consider CCCAGAGCUCAACACAGCGUGGCUAAGUGGCUGUUGCUAGACUGCC [G1C G2C A24U G35U], for which the self-cleavage amounted to 0.31.

As for CGCAGAGCUCAACACAGCGUGGCAAAGUGGCUCUGGCUAGGCUGCU [G1C G33C A41G C46U], the self-cleavage was found to be 0.02.

For CGCAGAGCUCAACACAGCGUGGCAAAGUUGCUGUGGCUACACUGCC [G1C G29U G40C], the self-cleavage was found to be 0.04.

Turning to CCCAGAGCUCAACACAGCGUGGCAAAGUGGCUGUGGGUAGACUGUC [G1C G2C C37G C45U], the self-cleavage amounted to 0.04.

Consider CGCAGAGCUCAACACAGCGUGGCAAAGUUGCUGUGGCUCGUCUGCC [G1C G29U A39C A41U], for which the self-cleavage was 0.07.

As for CGCAGAACUCAGCACAGCAUGGCAAAGUGCCUGUGGCUAGACUGCC [G1C G7A A12G G19A G30C], the self-cleavage amounted to 0.

Consider CGCAGAGCUCAACACAGCGUGUCAAAGUGGCUGUCGGUAGACUGGC [G1C G22U G35C C37G C45G], for which the self-cleavage was determined as 0.02.

As for CCCACAGCUCAACACAGCGUGGCAAAGUGGCUGUGGCUAGACUGCA [G1C G2C G5C C46A], the self-cleavage came out at 0.01.

For CGCAGAGCUCAACAUAGCGUGGCAAAUUGGCUGUGGCUAGACUGCC [G1C C15U G27U], the self-cleavage is 0.04.

With CGCAGAGCUCAACACAGGGUGGCGAAGUGGCUGUGGCUAGACUUCA [G1C C18G A24G G44U C46A], the self-cleavage was 0.01.

CGCAGAGCUCAAGACAGUGUGGCGAAGUGGCUGUGGCUAGACUGCC [G1C C13G C18U A24G]: the self-cleavage came out at 0.01.

As for CGCACAGCUCAACACAGCGUGGGAAAGUGGGUGUGCCUAGACUGCC [G1C G5C C23G C31G G36C], the self-cleavage came out at 0.01.

With CGCAGAGCUCAACACAGCGUGGCAAAGUGGCUGUAUCUAGACUGCC [G1C G35A G36U], the self-cleavage amounted to 0.04.

Turning to CGCAGAGCUCAACACAGAGUGGCAAAGUGGCUGUGGUUAGACUGCC [G1C C18A C37U], the self-cleavage came to 0.03.

On to CACAGAUCUCAAUACAGCGUGGCCAAAUGGCUGUGGCUAGACUGCC [G1C G2A G7U C13U A24C G27A], for which the self-cleavage is 0.03.

On to CGCAGAGCUCAACACAGUGUGGCAUAGUGGCUGUGGCUAGACUGCC [G1C C18U A25U], for which the self-cleavage came out at 0.1.

For the variant CGCAGAGCUCAACAAAUCGUGGCAAAGUGGCUGUGGCUAGACUGCC [G1C C15A G17U], the self-cleavage turned out to be 0.01.

In the case of CGCAGAGCUCAACAAACCGUGGCAAAGUGGCUGUGGCUAGACUGCC [G1C C15A G17C], the self-cleavage amounted to 0.01.

As for CGCAGAGCUCAACACAGCGUGGCAAAGUGGUUGUGGCUAAACUGCA [G1C C31U G40A C46A], the self-cleavage was 0.01.

In the case of CGCAGAGCUCAACACAGCGUGGUAUAGUGGCUAUCGCUCGACUGCC [G1C C23U A25U G33A G35C A39C], the self-cleavage amounted to 0.

For the variant CGCAGACAAGAACACAGAGUGGCAAAGUCGCUGUGGCUAGACUGCU [G1C G7C C8A U9A C10G C18A G29C C46U], the self-cleavage came to 0.

CUCAGAGCUCAACACCGCGUGGCAAAGUGGCUGUGGCUAGACUGCC [G1C G2U A16C]: the self-cleavage came out at 0.02.

Regarding CGCAGAGCUCAACACAGCGUGGCAAAGUGGGUGUGGCUAGACUGAC [G1C C31G C45A], the self-cleavage was 0.06.

As to CGCAGAUCUCAACACAGCGUGGCAGAGUGGCUGUGGCUAGACUGCC [G1C G7U A25G], the self-cleavage was 0.03.

Turning to CGCAGAGCUCAACACAGCGUGGCAAAGUGGCUCUAGCUAGACUCCC [G1C G33C G35A G44C], the self-cleavage was determined as 0.01.

As to CGCAGAGCUCAACACAGCGUGGCAAAGUGGCUGUUGCUUGAGUGAC [G1C G35U A39U C42G C45A], the self-cleavage came to 0.02.

CGCAGAGCACAACACAGAGUGGCAAACUGGAUAUGGCUAGACUGCC [G1C U9A C18A G27C C31A G33A]: the self-cleavage stood at 0.04.

CGCAUAGCUCAACACAGAGUGGCAAAGUGGCUGUAGCUAGACUGCG [G1C G5U C18A G35A C46G]: the self-cleavage amounted to 0.01.

Consider CGCAGAGCUCAACACAGCGUAGUAGACUGGCUGUGGCUAUACUGCC [G1C G21A C23U A25G G27C G40U], for which the self-cleavage is 0.04.

As for CUCAGACCUCAACACAGCGUGACAAAGUGGCUCUGGCUAGACUGCC [G1C G2U G7C G22A G33C], the self-cleavage stood at 0.02.

In the case of CGCAGAGCUCAACACAGCGUGGCAAAGUGGCUGUGGUAAGACUGCA [G1C C37U U38A C46A], the self-cleavage was 0.

Turning to CGCAGAGCUCAACACAGCGUAGCAAAGUGGCUGUCGCUAGACUGCC [G1C G21A G35C], the self-cleavage was found to be 0.04.

With CGCAGAGCUCAACAUAGCUUGGCAAAGUGGCUGUGGCUAGACUGCC [G1C C15U G19U], the self-cleavage came out at 0.04.

Take CGCAUAGCUCAACACAGCGUGGCAAUGUGACUGUGGCUAGCCUGCC [G1C G5U A26U G30A A41C]: the self-cleavage came out at 0.

For CGCAGAGCUCAACACAGCGUUGCAAAGUGGUUGUGGCUAGACUGCC [G1C G21U C31U], the self-cleavage was found to be 0.06.

CGCAGAGCUCAACACAGCGUUGCAAAGUGGCUGUGGCUAGACUGCA [G1C G21U C46A]: the self-cleavage worked out at 0.32.

As for CGCAGAGCUCAACACAGCGUGGCAAAGUUGCUGCGGCUAGACUGCC [G1C G29U U34C], the self-cleavage is 0.01.

With CGCAGAGCUCAACACAGCUUGGCAAAGUGGGUUUGGCUAGACUGGC [G1C G19U C31G G33U C45G], the self-cleavage was determined as 0.01.

For CGCAGAGCACUACACAGCGUGGGAAAUUGGCUGUGGCUAGACUGCC [G1C U9A A11U C23G G27U], the self-cleavage stood at 0.

Consider CGCAGAGCUCAACACAGCGUUGCAAAGCGGCUGUGGCUAGACUGCC [G1C G21U U28C], for which the self-cleavage worked out at 0.13.

Take CGCAUAGCUCAACACAGCGUGGCAAAGUGGCUGUGGCUAGACUACC [G1C G5U G44A]: the self-cleavage turned out to be 0.01.

With CGCAGAGCUCAACAUAGAGUAGCAAAGUGUCUGUGGCUAGACUGCC [G1C C15U C18A G21A G30U], the self-cleavage worked out at 0.01.

CGCAGAGCUCAACACAGCGUGGCAAAGUGGCUCUGGCCGGACUGCC [G1C G33C U38C A39G]: the self-cleavage was found to be 0.01.

CGCAGACCUCAACACAGCGUGGAAAAGUGGCUUUGGCUAGACACCC [G1C G7C C23A G33U U43A G44C]: the self-cleavage was found to be 0.03.
